Data as given in the RNAGym collection of RNA variant scans (doi:10.1093/nar/gkz1192).
Read counts are not given, so values of variants with three or more changes are uncertain.

B1: CPEB3 Ribozyme (parent)
chain: UAACAGGGGGCCACAGCAGAAGCGUUCACGUCGCAGCCCCUGUCAGAUUCUGGUGAAUCUGCGAAUUCUGCUGUAUAUCUC

Variants of: B1
Experiment: self-cleavage, relative activity (ratio to wild type); higher = more cleavage; in vitro, sequencing
Outline: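 CPEB3 self-cleaving ribozyme mutant libraries were made by rounds of error-prone PCR, barcoded, and transcribed in vitro with T7 RNA polymerase for 5 hours at 37°C. Cleavage occurred during transcription and a 15 min DNase I step before EDTA stop. RNAs were reverse transcribed with template switching and Illumina-sequenced, with DNA sequencing mapping barcodes to variants. Relative activity is the variant's cleaved/total read fraction divided by wild type's (minimum 5 reads), averaged across three batches.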
UAACAGGAGGCCACAGCAUAAGCGUCCACGUCGCGGGCCCUGUCAGAUUCUGGUGAAUCUGCGAAUUCUGCUGUAUAUCUC showed a self-cleavage of 0.22.
UAACAGGAGGCCACAGCAGAAACGUUCACGUCGCAGCCCCUGUCAGAUUCUGGCGAAUCUGCGAAUUCCCCUGUAUAUCUC showed a self-cleavage of 0.06.
UAACAGGAGGCCACAGCAGAAGCACUCACGUCGCAGCCCCUGUCAGAUUCUGGUGAAUCUGCGAAUUCUGCUGAAUAUCUC showed a self-cleavage of 0.11.
UAACAGGAGGCCACAGCAGAAGCCUUCACGUCGCAGUCCCUGUCAGAUCCUGGCGGAUCUGCGAAUUCUGCUGUAUAUCUC showed a self-cleavage of 0.03.
With UAACAGGAGGCCACAGCAGAAGCGUUCACAUCGCAGCCCCUGUCAGAUUCUGGUGAAUCUGCGUAUUCAGCUGUAUAUCUC the self-cleavage was 0.05.
With UAACAGGAGGCCACAGCAGAAGCGUUCACGUCUCAGCCCCUGUCCGAUUCUGGUGGAUCUGCGAAUUCUGCCGUAUAUCUC the self-cleavage was 0.09.
For UAACAGGAGGCCACAGCAGAAGCGUUCACGUCGCAGCCCCUGUCAAAUUCUGGCGAAUCUGCGAAUUCUGCUGUAUAUCUC, the self-cleavage was 0.06.
With UAACAGGAGGCCACAGCAGAAGCGAUCACGUCGCAGCCCCCGUCAGAUCCUGGUGAAUCUGCGAAUUCCGCUGAAUAACUC the self-cleavage was 0.04.
For UAACAGGAGGCCACAGCAGAAGCGCUCACGUCGCAGCCCCUGUCGGAUUCUGGAGAAUCUGCGAAUUCUGCUGUAUAUCUC, the self-cleavage was 0.62.
Variant UAACAGGAGGCCACAGCAGAAGCGCUCACGUCGCAGCCCCUGUCAGAUUCUGGUGAGUCUGCGAAUUCUACUGUAUAUCUC has a self-cleavage of 0.04.
UAACAGGAGGCCACAGCAGAAGCGCUCACGUCGCAGCCCCUGUCAGAUUCUGGUGAAUCUGCGAAUUCUGCUGUAUUUCAC gave a self-cleavage of 0.13.
With UAACAGGAGGCCACAGCAGAAGCGCUCACGUCGCAGCCCCUGCCAGAUACUGGUGAAUCUGCGAAUUCUGCUGUAUAUCUC the self-cleavage was 0.06.
UAACAGGAGGCCACAGCAGAAGCGCUCACGUCGCAGCCCCUGUCAGAUUCUGGUGAAUCUGCGAAUACUGCUGUAUAUCUC showed a self-cleavage of 0.09.
For UAACAGGAGGCCACAGCAGAAGCGUACGCGUCGCAGCCCCUGUCAGAUUCUGGUGAAUCUGCGAAAUCUGCUGAAUAUCUC, the self-cleavage was 0.05.
In the case of UAACAGGAGGCCACAGCAGAAGCGUACACGUCGCAGCCCCUGUCAGUUUCUGGUGUAUCUGCGAAUUCUGCUGUAUAUCUC, the self-cleavage is reported as 0.34.
UAACAGGAGGCCACAGCAGAAGCGUACACGUCGCAGCCCCUGUCAGAUUCUGGUGGAUCUGCGAAUUCUGCUGUAUAUCUC gave a self-cleavage of 0.34.
With UAACAGGAGGCCACAGCAGAAGCGUACACGUCGCAGCCCCUGUCAGAUUCUGGUGAAUCUGCGAAUUCUGCUGUAUUUCUC the self-cleavage was 0.07.
UAACAGGAGGCCACAGCAGAAGCGUCCUCGUCGCAGCCCCUGUCAGAUUCUGGUGUAUCUGCGAAUUUUGCUGCAUAUCGC showed a self-cleavage of 0.03.
Variant UAACAGGAGGCCACAGCAGAAGCGUCCACGUCGCUGCCCCUGUCAGAUCCUGGUGAAUCUGCGAAUUCUGCAGCAUAUCUC has a self-cleavage of 0.04.
Variant UAACAGGAGGCCACAGCAGAAGCGUCCACGUCGCAGCCCCUGUCCGACUCUGGUGAAUCUGCGAACUCUGCUGUAUAUCUC has a self-cleavage of 0.06.
Work on UAACAGGAGGCCACAGCAGAAGCGUCCACGUCGCAGCCCCUGUCAGAUUCUGGUGGAUCCGCGAAUUCUGCUGUAUAUCUC yielded a self-cleavage of 0.06.
UAACAGGAGGCCACAGCAGAAGCGUCCACGUUGCAGCCCCUGUCAGAUUCAGGUGAAUCUGCGAAUUCUGCUGUAUAUCUC gave a self-cleavage of 0.08.
Work on UAACAGGAGGCCACAGCAGAAGCGUCCACGUCGUAGCCCCUGUCAGAUUCUGGUGAAUCUGGGAAUUCUGCUGUAUAUCUC yielded a self-cleavage of 0.04.
UAACAGGAGGCCACAGCAGAAGCGUCCACGUCGCAGUCCCUGUCAGAUUCUGGUGAAUCUGCGUAUCCUGCUGUAUAUCUC showed a self-cleavage of 0.05.
In the case of UAACAGGAGGCCACAGCAGAAGCGUUCACGACGCAGCCCCUGUCAGAUUCUGGUGAAGCCGCGAAUCCUGCUGUGUAUCUC, the self-cleavage is reported as 0.03.
Work on UAACAGGAGGCCACAGCAGAAGCGUUCACGCCGCAGCCCCUGUCAGGUUCUGGUGAAUCUGCGAAUGCUGCGGUAUAUCUC yielded a self-cleavage of 0.03.
In the case of UAACAGGAGGCCACAGCAGAAGCGUUCACGCUGCAGCCCCUGUCAGAUUCUGGUGAAUCUGCGAAUUCUGCUGUAUACCUC, the self-cleavage is reported as 0.06.
For UAACAGGAGGCCACAGCAGAAGCGUUCACGCCGCAGCCUCUGUCAGAUUCUGGUGAAUCUGCGAAUUCUGCUGUAUAUCUC, the self-cleavage was 0.7.
UAACAGGAGGCCACAGCAGAAGCGUUCACGGCGCAGCCCCUGUCAGAUUCCGGUGAAUCUGCGGAUCCUGCUGUAUACCUC gave a self-cleavage of 0.05.
Work on UAACAGGAGGCCACAGCAGAAGCGUUCACGUCGCAGCCCCCGUCAGAGUCUGGUGAGUCCGCGAAUUCUGCUGUAUAUCUC yielded a self-cleavage of 0.06.
Variant UAACAGGAGGCCACAGCAGAAGCGUUCACGUCGCAGCCCCCGUCAGAUUCUGGUGAAUCUGCGAAUUCUGCUGUAAAUCUC has a self-cleavage of 0.32.
Variant UAACAGGAGGCCACAGCAGAAGCGUUCACGUCGCAGCCCCUGUCAGACUCUGGUGAAUCUGCGAAUUCUGCUGUUUAUCUC has a self-cleavage of 0.08.
UAACAGGAGGCCACAGCAGAAGCGUUCACGUCGCAGCCCCUGUCAGACUCAGGUGAAUCUGCGAAUUCUGCUGUAUAUCUC gave a self-cleavage of 0.25.
Work on UAACAGGAGGCCACAGCAGAAGCGUUCACGUCGCAGCCCCUGUCAGACUCUGGUGAAUCUGCGAAAUCUGCUGUACAUCAC yielded a self-cleavage of 0.04.
